In article PMC11151825 (RSC Chemical Biology, 2024):
Bridge positions count the residues as written; N and C are the ends. Ends that are not written are not given here. Peptide text beside a SMILES is read from it.

How the values were obtained:
κ-opioid receptor (KOR) [1] = molecular target: T1, κ-opioid receptor (KOR) (Mus musculus, UniProt P33534); assay: cell-based; type: cell-based; conditions: for Emax: HEK293
κ-opioid receptor (KOR) [2] = molecular target: T1, κ-opioid receptor (KOR); assay: biochemical
Protocol: Section 6: KOR pharmacology
HEK293 cells were cultured in Dulbecco’s modified Eagle medium (DMEM) containing 10% fetal bovine serum and 50
U/mL penicillin and streptomycin and were grown at 37 °C and 5% CO2. The HEK293 cell line stably expressing mouse
KOR-EGFP was generated by geneticin disulfate (0.8 mg/mL of G418, ROTH, Austria) selection and flow cytometry to
select cells for stable cell line propagation. Positive clones were identified by radioligand binding studies as previously
Radioligand Competition Binding Assays
Membranes were prepared from HEK293 cells stably expressing the KOR as previously described.2 Radioligand binding
studies were carried out in duplicate using standard binding buffer containing 50 mM Tris−HCl (pH 7.4), 10 mM MgCl2,
and 0.1% BSA. For competition binding, 75 μL each of [3H]-diprenorphine (1 nM final), peptide solution (4×), and
membrane preparations (7 μg/assay) was incubated in the standard binding buffer, and binding reactions were
incubated for 1 h at 37 °C. Termination of reactions was performed by rapid filtration onto a 0.1% polyethylenimine-
soaked GF/C glass fiber filter with a Skatron cell harvester.
Functional cAMP assay was conducted in triplicate using HEK293 cells stably expressing the mouse KOR according to the
manufacturer’s protocol with slight modifications. Briefly, 2000 cells per 5 μL per well were seeded into a white 384-
well plate and incubated with 5 μL of logarithmically spaced concentrations of peptide solutions prepared (2×) in 1×
stimulation buffer and forskolin (10 μM final). The reaction mixture was incubated at 37 °C for 30 min followed by
addition of Europium cryptate-labeled cAMP and cAMP d2-labeled antibodies (5 μL of each). After incubation for 1 h at
room temperature, cAMP quantification was measured by homogenous time-resolved fluorescence resonance energy
transfer on a Flexstation 3 (Molecular Devices, San Jose, USA) using a ratio of 665/620 nm.

[3] = molecular target: trypsin from bovine pancreas (Bos taurus, UniProt P00760); conditions: for trypsin inhibition (in words): pH 7.8, 37 °C

T1 sequence (P33534 whole entry): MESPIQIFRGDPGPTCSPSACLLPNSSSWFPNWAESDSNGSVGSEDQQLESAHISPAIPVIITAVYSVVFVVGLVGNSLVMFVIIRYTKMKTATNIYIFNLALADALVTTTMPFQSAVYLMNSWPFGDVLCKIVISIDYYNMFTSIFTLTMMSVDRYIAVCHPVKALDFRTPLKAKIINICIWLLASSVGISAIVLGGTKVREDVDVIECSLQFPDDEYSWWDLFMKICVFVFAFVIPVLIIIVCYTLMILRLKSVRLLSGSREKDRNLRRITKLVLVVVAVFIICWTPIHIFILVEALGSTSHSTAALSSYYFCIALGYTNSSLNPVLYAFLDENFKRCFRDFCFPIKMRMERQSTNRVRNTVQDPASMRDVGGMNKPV

Compound	Emax (κ-opioid receptor (KOR) [1]) [%]	Ki (κ-opioid receptor (KOR) [2]) [µM]	EC50 (κ-opioid receptor (KOR) [1]) [µM]	agonist activity at the κ-opioid receptor (in words) (κ-opioid receptor (KOR) [1])	trypsin inhibition (in words) [3]	inhibition of trypsin ([3]; n=3) [%]
CC[C@H](C)[C@H](NC(=O)[C@H](CCCNC(=N)N)NC(=O)[C@H](CCCNC(=N)N)NC(=O)[C@H](CC(C)C)NC(=O)[C@H](Cc1ccccc1)NC(=O)CNC(=O)CNC(=O)[C@@H](N)Cc1ccc(O)cc1)C(=O)N[C@@H](CCCNC(=N)N)C(=O)N1CCC[C@H]1C(=O)N[C@@H](CCCCN)C(=O)N[C@@H](CC(C)C)C(=O)N[C@@H](CCCCN)C(=O)O [Dynorphin A 1–13, dynorphin A (1–13), reference compound]	100	–	–	–	–	–
CC[C@H](C)[C@@H]1NC(=O)[C@H](CCCNC(=N)N)NC(=O)[C@H](CCCNC(=N)N)NC(=O)[C@H](CC(C)C)NC(=O)[C@H](Cc2ccccc2)NC(=O)CNC(=O)CNC(=O)[C@H](Cc2ccc(O)cc2)NC(=O)[C@H](CC(N)=O)NC(=O)[C@@H]2CSSC[C@@H]3NC(=O)[C@H](C(C)C)NC(=O)[C@@H]4CCCN4C(=O)[C@H](Cc4c[nH]c5ccccc45)NC(=O)[C@H](CO)NC(=O)[C@@H]4CSSC[C@H](NC(=O)[C@H]([C@@H](C)O)NC(=O)[C@H](CCC(N)=O)NC(=O)CNC(=O)[C@H](CSSC[C@H](NC(=O)CNC(=O)[C@H](CCCCN)NC(=O)[C@H](CC(C)C)NC(=O)[C@H](CCCCN)NC(=O)[C@@H]5CCCN5C(=O)[C@H](CCCNC(=N)N)NC1=O)C(=O)N[C@@H]([C@@H](C)O)C(=O)N4)NC(=O)[C@H](C(C)C)NC(=O)[C@@H]1CCCN1C(=O)[C@H](CC(C)C)NC(=O)CNC(=O)[C@H](CC(N)=O)NC(=O)[C@H](CCCNC(=N)N)NC(=O)[C@H]([C@@H](C)O)NC3=O)C(=O)N[C@@H](C(C)C)C(=O)NCC(=O)NCC(=O)N[C@@H]([C@@H](C)O)C(=O)N2 [ΔL3[E3Q]kB1-dynA] (cyclo(CGQTCVGGTCNYGGFLRRIRPKLKGCTCSWPVCTRNGLPV); disulfide 1-26, 5-28, 10-33 (inferred); ring closure inferred)	109 ± 27.4	0.0014 ± 0.0009	0.028 ± 0.0098	full agonist activity	–	–
CC[C@H](C)[C@@H]1NC(=O)[C@H](CCCNC(=N)N)NC(=O)[C@H](CCCNC(=N)N)NC(=O)[C@H](CC(C)C)NC(=O)[C@H](Cc2ccccc2)NC(=O)CNC(=O)CNC(=O)[C@H](Cc2ccc(O)cc2)NC(=O)[C@H](CO)NC(=O)[C@@H]2CSSC[C@@H]3NC(=O)[C@H]([C@@H](C)O)NC(=O)[C@H](CCC(N)=O)NC(=O)CNC(=O)[C@@H]4CSSC[C@H](NC(=O)CNC(=O)[C@@H]5CCCN5C(=O)[C@H]([C@@H](C)O)NC(=O)[C@H](CC(N)=O)NC(=O)[C@H](CSSC[C@H](NC(=O)[C@H](C(C)C)NC(=O)[C@H](CCCCN)NC(=O)[C@H](CC(C)C)NC(=O)[C@H](CCCCN)NC(=O)[C@@H]5CCCN5C(=O)[C@H](CCCNC(=N)N)NC1=O)C(=O)N[C@@H]([C@@H](C)O)C(=O)N[C@@H](CCCNC(=N)N)C(=O)N[C@@H](CC(N)=O)C(=O)NCC(=O)N[C@@H](CC(C)C)C(=O)N1CCC[C@H]1C(=O)N[C@@H](C(C)C)C(=O)N4)NC(=O)[C@H]([C@@H](C)O)NC(=O)CNC(=O)CNC(=O)[C@H](C(C)C)NC3=O)C(=O)N[C@@H]([C@@H](C)O)C(=O)N2 [ΔL5[E3Q]kB1-dynA] (cyclo(CGQTCVGGTCNTPGCTCSYGGFLRRIRPKLKVCTRNGLPV); disulfide 1-15, 5-17, 10-33 (inferred); ring closure inferred)	128 ± 21	0.0032 ± 0.0017	0.112 ± 0.0682	full agonist activity	–	–
CC[C@H](C)[C@@H]1NC(=O)[C@H](CCCNC(=N)N)NC(=O)[C@H](CCCNC(=N)N)NC(=O)[C@H](CC(C)C)NC(=O)[C@H](Cc2ccccc2)NC(=O)CNC(=O)CNC(=O)[C@H](Cc2ccc(O)cc2)NC(=O)[C@H]([C@@H](C)O)NC(=O)[C@@H]2CSSC[C@@H]3NC(=O)[C@H]([C@@H](C)O)NC(=O)CNC(=O)CNC(=O)[C@H](C(C)C)NC(=O)[C@@H]4CSSC[C@H](NC(=O)[C@H]([C@@H](C)O)NC(=O)[C@H](CSSC[C@H](NC(=O)[C@H](C(C)C)NC(=O)[C@H](CCCCN)NC(=O)[C@H](CC(C)C)NC(=O)[C@H](CCCCN)NC(=O)[C@@H]5CCCN5C(=O)[C@H](CCCNC(=N)N)NC1=O)C(=O)NCC(=O)N[C@@H](CCC(N)=O)C(=O)N[C@@H]([C@@H](C)O)C(=O)N4)NC(=O)CNC(=O)[C@@H]1CCCN1C(=O)[C@H]([C@@H](C)O)NC(=O)[C@H](CC(N)=O)NC3=O)C(=O)N[C@@H](CO)C(=O)N[C@@H](Cc1c[nH]c3ccccc13)C(=O)N1CCC[C@H]1C(=O)N[C@@H](C(C)C)C(=O)N2 [ΔL6[E3Q]kB1-dynA] (cyclo(CGQTCVGGTCNTPGCTCSWPVCTYGGFLRRIRPKLKV); disulfide 1-15, 5-17, 10-22 (inferred); ring closure inferred)	139 ± 20.2	0.0062 ± 0.0042	0.0688 ± 0.0231	full agonist activity	No trypsin	–
VCGQTCVGGTCNTPGCTCSWPVCT (also: bicyclic or more (positions not given here)) [∆L6[E3Q]kB1]	–	–	–	–	No trypsin	–
c-GCTKSIPPICGVCGQTCVGGTCNTPGCTCSWPVCT (bicyclic or more) [ΔL6[E3Q]kB1-SFTI]	–	–	–	–	–	~45
